Test results taken from the supplement of paper PMC3334620.
The full ranking holds about 33,000 sequences; the median of “E-score (-0.5 to 0.5)” is about -0.035, and the highest 2% start at about 0.34. Some of the results follow.

The sequences below were run against T1, Mot3 (UniProt P54785) (assay: PBM E-score (8-mer binding enrichment) (E-score (-0.5 to 0.5)); higher = stronger / more preferred TF binding; most listed sequences are background and not binding sites). Settings: protein concentration: 200 nM; construct: GST-full length.
T1 sequence: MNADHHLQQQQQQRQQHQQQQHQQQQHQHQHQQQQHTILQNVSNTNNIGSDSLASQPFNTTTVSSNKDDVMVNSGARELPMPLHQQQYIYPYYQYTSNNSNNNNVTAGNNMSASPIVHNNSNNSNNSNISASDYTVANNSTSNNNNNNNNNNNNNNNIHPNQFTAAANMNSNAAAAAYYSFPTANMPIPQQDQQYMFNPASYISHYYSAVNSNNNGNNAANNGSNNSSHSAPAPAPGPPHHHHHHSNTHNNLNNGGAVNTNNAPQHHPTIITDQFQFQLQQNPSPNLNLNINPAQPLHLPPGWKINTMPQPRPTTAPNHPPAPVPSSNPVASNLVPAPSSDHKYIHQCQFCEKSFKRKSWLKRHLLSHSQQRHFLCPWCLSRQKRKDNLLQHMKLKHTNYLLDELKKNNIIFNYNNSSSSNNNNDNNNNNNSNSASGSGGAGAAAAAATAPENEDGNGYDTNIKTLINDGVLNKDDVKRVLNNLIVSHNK
Outline: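 For each ungapped eight-base word taken together with its reverse complement, the Universal PBM Analysis Suite assigned an E-score. Binding data came from GST-tagged yeast transcription factors, applied at about 100-200 nM, on universal all-10-mer Agilent arrays made double-stranded by primer extension. Fluorescent anti-GST marked bound protein, and scans were normalised with masliner.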

Sequence	PBM E-score
CGTAACCA	0.0907
CGGAACCG	-0.249
AAACGTTA	0.152
CCAAGGGC	-0.163
ACACCAGA	0.101
TCAGCTAA	-0.198
CTAATCTC	-0.0443
GACCTGAA	-0.107
CACGAGAG	-0.0248
AATGGGAT	-0.256
GATACATA	0.252
CGCATGTC	0.146
TGGGTAAA	-0.0942
CCAAACGC	-0.125
GACTCCGA	-0.00932
GAGAAATC	-0.077
ACGTCTCC	0.0151
CGGCGACA	-0.259
ACGTTGTG	0.137
AATGGGAG	-0.0219
AAGCCCGT	-0.0844
CTTCAGCA	-0.076
GTCTTGAA	-0.133
AAGACTAG	-0.0988
ATCTTTGA	-0.086

Sequence	PBM E-score
GCCGACAA	-0.112
ACCCGATG	-0.0404
GCACAGCC	-0.251
TAAAAACA	0.257
AATCGGTG	-0.0687
AATAGCAG	-0.039
AGGACACC	0.0146
ATTCTATC	0.0201
GTTCCAAA	0.0351
CTAGGGTA	-0.133
ACCTCGAC	-0.0664
GATCATGC	-0.358
AATAAACA	0.26
AGGTGGGA	-0.105
ACCGCTGA	-0.0199
GGCATATA	0.0734
AGTTGCCC	0.144
ACATTGAT	0.117
GGGAAAAA	-0.123
AGCCCACC	-0.268
ACAGCGCG	0.129
ATCTGTGC	0.174
CGAGGAGA	-0.317
CGCGCCTC	-0.152
AGTAATGA	0.123

Sequence	PBM E-score
GCCCGACC	-0.361
AGTAGATA	0.0664
AAGTCAGT	-0.0821
AGGAAGTC	-0.25
AAGGCAAG	0.485
GCTGGAAC	-0.289
GCACGTGC	0.252
ACACCAAA	0.132
AGGTAACC	0.321
CGGATTCC	-0.181
CACGCCAC	0.0438
AAGCACGA	0.00749
CTGATTCC	-0.0534
GAGGGCGA	-0.383
CAGAGGTC	-0.225
CCCGATCC	-0.159
AATAGTTG	0.197
GCATTTAC	0.182
AAAACAAA	0.179
CGTCACGC	0.0486
GTGCCAAC	-0.0867
GGAGAACC	-0.135
AGGCGCGG	0.117
TAAACTTA	0.199
CTGTTTCA	0.0233

Sequence	PBM E-score
ATGGGAGA	-0.058
AAAATCGT	-0.0334
AGATCCAT	-0.295
CAGAGCGC	-0.053
CAATATCC	-0.271
CCGGCTCC	-0.449
AGTGCGGA	-0.22
AGGGCCAC	-0.252
CTGTCTCA	-0.258
ACGTAATG	0.348
AAACAGAT	0.139
AGCTTTGG	-0.161
GTTCGACA	0.191
GCGAAGCC	-0.194
CCGAAAAG	-0.0393
AGGGTCCC	0.0028
ATCCCTGA	-0.285
AATAATAA	0.183
TCACGCCA	0.00058
GTCCAAGA	-0.247
TAGTTGAA	-0.00318
TATAGGCA	0.482
AGACTCCA	-0.272
AAGTACCA	-0.00264
CAGCCGAG	-0.21

Sequence	PBM E-score
CCATTTCC	0.0138
AATTAAAT	0.124
CACGATAC	0.112
GCGTTTTA	0.11
GACTTCAC	-0.093
ATCCTTCA	0.0452
CATTGGGC	-0.124
GGCTTAAA	-0.0784
GCACTCAC	-0.129
GCGAGCGC	-0.131
GGTAAGGA	0.205
ATTGCTTG	0.0927
AAGCTGGT	-0.0363
TGAAGCCA	-0.0204
ATAACAGC	0.159
CCACGTTC	0.00954
CTCTCAAA	0.048
AAAACAAT	0.233
CGTCCACC	-0.302
TGGCAACA	0.118
CGGAGGAA	0.111
ATTGTATA	0.0976
AAGGGGGA	-0.182
AGGTCTTG	-0.187
CCTTAGGA	0.137

Sequence	PBM E-score
TATTTCAA	0.159
CAACAGGC	0.377
AATCCAGT	-0.102
CCTGGCGA	-0.186
ACCGTTTG	-0.121
AGGGGTCC	-0.176
AGGGCCCC	-0.164
TGAGCGCA	-0.208
CGCCCAGA	-0.045
TAGCTCAA	-0.0939
TACCGTCA	-0.144
AAAGTTGC	0.0627
GGATCCAA	-0.0546
AAGTATCG	0.12
CCGCTAAA	-0.13
CCCAGCCC	-0.278
ACCGGTGC	-0.167
AATAGTTC	-0.0328
AATAACTC	-0.0772
GCATTGCC	0.154
CGCGGAAG	-0.172
GGAACGTA	0.0776
AGCATGTG	0.179
TTGCACAA	0.144
CGATCATC	0.0732

Sequence	PBM E-score
AAGGCGGT	-0.0582
AGGCTAGG	-0.275
TACGCGAA	0.221
CATGATGA	0.0549
GACGTACC	0.0191
ACGCTAGG	0.00485
CTTTCGTA	0.0689
ATATATGA	0.011
CGGTCCAG	-0.194
AACAACGC	0.175
AGCCTAAT	0.185
AATATTAA	0.13
ACGTCAAA	0.253
CACCCTTA	-0.063
GTATGATA	0.175
GCCAGGCA	0.436
ATTTCCAC	0.0201
ATCCGTCC	-0.132
CGGGTACC	0.0123
GAAACTTC	-0.0215
CCCTTACC	-0.134
ACGAACCG	-0.085
AGTGCTGA	-0.215
ACGGCGGC	-0.0775
ATTAAAGG	0.312

Sequence	PBM E-score
AGCTCTTG	-0.0232
CTCTTCCC	-0.0605
CAGGAACC	0.46
AGCGTGAC	0.106
ATATCCAT	0.051
AGATCTAT	-0.0523
AATTGGTC	0.0243
CACGTCAA	0.0623
AACCACCT	-0.162
CGCTGGTA	-0.0902
AAGCTTGG	-0.244
ACGCCATG	0.09
AACTAGTC	-0.0317
ATACTGGG	-0.0397
AACGATCG	0.122
ACCCAAGT	-0.0543
AGGAGGAA	0.149
CCGGCCGG	-0.17
CAATACGC	0.214
CTGAACGC	-0.0478
AGAAGTCC	-0.227
CCCGGCAA	-0.125
GCCCTGCC	-0.149
AGGTGAGG	-0.317
TTCCTAAA	0.408

Sequence	PBM E-score
GCATCACC	-0.222
GGTGACAA	-0.12
CTACCGCA	-0.0463
AAGAGGTG	0.139
ATTAAGTC	0.138
CATAATCG	-0.148
CTGAAGTC	-0.0381
ACTCTAAA	0.00129
TCGGCGAA	-0.229
GCTTGCCA	-0.0267
AGCGCGCT	-0.198
ACTACTAG	0.0537
AGGTATTA	0.225
AGTCACCC	0.0464
CGTCGGTA	0.0636
GAATAAAA	0.0935
GCTTGATA	-0.0713
ACCAGCGC	-0.0467
AGGGCAGC	-0.0787
ATGCACAA	0.0919
AAACATGG	0.222
TCCTAAGA	-0.052
ATATGATG	-0.0645
GTTGTAAA	0.31
GGACTCTA	-0.204

Sequence	PBM E-score
ACGGCGAG	-0.168
ACCACGTG	0.07
ACGTGTAG	0.389
GCATCCCC	-0.275
GCATACAA	0.108
AACGGGAA	-0.03
AATGAAGT	-0.0462
TCAAATGA	-0.00184
ATATCGGG	-0.103
TATACTGA	0.095
ACAAAGTG	-0.0319
CTCATAGA	-0.101
ACGCGCGG	-0.081
ACAATCGA	-0.0299
ATTATTAA	0.0971
TGAAAAAA	0.128
CACGCCGG	-0.201
CGTTTGCC	0.103
AGATAATG	0.19
ATGAGGAC	-0.21
GCCATCGC	-0.25
AAGTGCAA	-0.0305
TGTGATAA	0.253
CAACCGGG	-0.0935
TCGCCCAA	-0.203

Sequence	PBM E-score
ATGAATAC	0.0773
TGATTCAA	0.122
CACATGGA	0.0921
AGATCGAA	-0.14
GGCTGAAA	-0.00504
CTCTCGCC	-0.162
GCGGGAAA	0.0709
GAATTACA	0.366
ATGTCGGA	-0.023
GTTTCTTA	0.0641
CCCATCGC	-0.16
AGTGGCCG	-0.346
CGTGACCC	-0.0451
CAGTGATC	-0.0773
CCATAATA	0.0795
CCCTGAGG	-0.0615
AGATAGTC	-0.0427
AAAAGGTT	0.0251
ATTCATCC	0.0274
CGTATTAG	0.205
TCTAGAGA	-0.194
CGGCCAAC	-0.155
ATCCCTAA	-0.204
AAAGCCGC	-0.119
GCAGCGGC	-0.323

Sequence	PBM E-score
GAGTGTGA	0.0249
GAGAAACA	0.199
CGGAGGGA	-0.312
CCGTTGCG	-0.0656
CACACGTA	0.208
CAATGAGA	-0.0142
ACGGTTAT	-0.0155
CCTTGGAG	-0.0105
ACCAGGTA	0.112
AAATTGGA	-0.0378
AACGATTG	0.139
AGGTAGTG	-0.0997
ACCGTCCT	-0.206
AAATGAAA	0.156
AGGCTTAA	0.0146
CGTCGGAA	0.0215
CGACTCGA	-0.00635
ACCCATCT	-0.0782
CCACTTGC	-0.157
CAAGAACA	0.166
GGTATGTA	0.343
ATCTCCGC	-0.251
GAGATGGA	-0.309
ACGAGGGA	-0.134
CGCAAAGC	-0.281

Sequence	PBM E-score
CTCCGAAA	-0.173
CTGAGACA	-0.0994
TTAAGCAA	0.116
AGTTTAAG	0.0984
CTCAGGAA	0.335
GATTAGGA	0.0102
GCCGGACA	-0.256
ACGTCGGG	-0.205
TAATTCTA	0.168
GCGCTCGA	-0.00313
CTCCTGGA	-0.172
CCGCGTTA	0.169
ATCCAGTG	-0.0645
AGGATTCC	-0.109
CTAGATGC	-0.0193
CCATCTCC	-0.26
GGCCGCCA	-0.209
AGCTCTTA	0.0235
AGCCCATA	-0.0979
GACTGTGA	-0.0263
ATAGGCAA	0.486
ACTCGCTC	-0.0329
ATGTTATA	0.318
AGGAACCT	0.458
AGCTTGGG	-0.236

Sequence	PBM E-score
GGTTTGCA	0.0583
CGACGAAG	-0.058
CTATAGAC	-0.0945
GTGTAGAA	0.364
CCCTAGCA	-0.0173
GCTCTGCC	-0.188
ACTACCTA	0.153
AACCATTG	0.147
ATCCTTGC	-0.0546
CAGAATGA	-0.0525
GAAATGAA	0.0736
CCAGAACC	0.0586
CCAAAGCA	-0.101
AATTACCC	-0.0825
CCTCTTAC	-0.0603
AATCTGAT	-0.0609
TGGCTCAA	-0.259
CATTGCGA	0.077
AGTTCCTG	0.403
